The text below walks through data of the supplement of paper PMC11417369.

± gives the standard deviation of the averaged measurements. Some of the results follow.

This assay concerns PfAP2-I AP2 domain 3 (GST-tagged). Put plainly: gcPBM binding intensity (ln(normalized median fluorescence intensity)); higher = stronger DNA binding. The procedure, abridged:
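Alexa488 anti-GST antibody, scanned at 488 nm, detected GST-tagged P. falciparum DNA-binding domains that had been expressed in E. coli and incubated for 1 h on an Agilent 4 × 180k array. The array carried primer-extended double-stranded 36-bp intergenic genomic probes and negative controls. Binding intensity is the highest Masliner-normalised natural-log median intensity across replicate spots of either orientation of each probe.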
Consider “ATAAAAAAGCAACATCATATGTTTTTATAGAGTATT [CACACA_negctrl_site745]”, for which the “gcPBM binding intensity (ln)” value was 7.47 ± 0.69. The figure for “AGTAATAGTTTGTGCACACTCAAGTATATCATAGAT [CACACA_site6082]” is 11 ± 0.23; for “TTTCGCTTTATTTATGCATGCAAATAAGTTGATATT [TGCATGCA_site724]” it is 8.06 ± 0.66.

On to “ATTTTTGTAAATACATGTACATATATATGCATATCC [XGTACX_site6353]”, for which the “gcPBM binding intensity (ln)” value was 8.21 ± 0.45. To “TACATATATACATACACACACATATAACCAATGTAG [CACACA_site2192]” belongs 7.83 ± 0.39; to “AAGAAAAATATTCGTGTGCACAGAAGTATATGTGTG [GTGCAC_site9814]”, 10 ± 0.23. To “TATTGTAAGAAAGGCACACAGATAAAATTATTATAT [CACACA_site2921]” belongs 8.11 ± 0.61. For the sequence “ATATAAGTGTATCTAACACACAAATATATAAAAATG [CACACA_site1956]”, the “gcPBM binding intensity (ln)” value stood at 7.8 ± 0.49.

In the case of “ATAATTATATGGCTAGCACACAATAAATAATTATAT [CACACA_site3815]”, the “gcPBM binding intensity (ln)” value is 7.92 ± 0.42. Consider “ATCATCTTTATTCAAGTGCACTGAAAATTTTTTATA [GTGCAC_site9801]”, for which the “gcPBM binding intensity (ln)” value is 11.1 ± 0.32. Take “ACAAGTTAAAATATTACACACATATAAATATTTATA [CACACA_site7467]”: the “gcPBM binding intensity (ln)” value came out at 7.72 ± 0.62. To “TTATACATTTGTAAATAAATAGAACTGTATTTTTTT [TGCATGCA_negctrl_site397]” belongs 7.24 ± 0.59. The figure for “TATATACCGATATATACACACAAATACATAAGCTTC [CACACA_site6760]” is 7.58 ± 0.63; for “CAAAATATTTTTATAACACACATATTTATAACGTGC [CACACA_site6659]” it is 7.73 ± 0.67; for “TTTTGATTGTTATTCGTATATTATTTTATGATTATA [CACACA_negctrl_site1593]” it is 7.49 ± 0.67. In the case of “AATAATCATTTTCATAGTACGTATGATTAGAAAAAA [XGTACX_site2589]”, the “gcPBM binding intensity (ln)” value came to 7.84 ± 0.49. In the case of “ATATTTCATCTAGCTACACACATATAATAAATTATT [CACACA_site4094]”, the “gcPBM binding intensity (ln)” value was 8.07 ± 0.63. The figure for “TGCCAATTTTTAAAAACATGCATTATATAGAATAAA [TGCATGCA_site872]” is 7.97 ± 0.57; for “AATGGAAAATTATTAACACACACATATAAATATATA [CACACA_site7899]” it is 7.62 ± 0.46. To “TTTTCAATATATAGAGCATGCGCATCCACAAATATG [TGCATGCA_site380]” belongs 7.93 ± 0.79; to “TACAACAATTTTTGCACACACCAAAACATAAAATAA [CACACA_site4964]”, 9.15 ± 0.22.

For “ATTAAAAGGGGGTTTACATGTGTGTGTGTAATATGG [TGCATGCA_negctrl_site293]”, the “gcPBM binding intensity (ln)” value is 8.59 ± 0.58. Regarding “AAATGAATTATATAATATATATAAATAAATAAATAA [CACACA_negctrl_site359]”, the “gcPBM binding intensity (ln)” value worked out at 7.78 ± 0.71.

For the sequence “TAATAAGTACCTTTTGCATGTGGCACGCTTTTTTTT [TGCATGCA_site573]”, the “gcPBM binding intensity (ln)” value was 8.45 ± 0.92. The figure for “TATTATATAACAAAAAGTACTTATAAGAAATATATA [XGTACX_site5467]” is 7.7 ± 0.26; for “CTAAATATATAAAAAAGTACAAAATAAATAATAATT [XGTACX_site2442]” it is 8.05 ± 0.25; for “TATTTCTGATTATTTTGTACACATTATATATAATGC [XGTACX_site6990]” it is 8.04 ± 0.29. For “TATATATTATGACCACCACACACCTATACACATAAC [CACACA_site8773]”, the “gcPBM binding intensity (ln)” value stood at 8.34 ± 0.4. The figure for “AATATAAACAGACACACACACATATAGATTTATATT [CACACA_site7382]” is 7.8 ± 0.52; for “TTTTAATGAAAACACACACACACATATATATATATA [CACACA_site5295]” it is 9.39 ± 0.3. To “GAAAATAGAAAAAGCACACATATATTTTGGAATGTA [CACACA_site551]” belongs 7.83 ± 0.42; to “GGATAGATAATAGGGGGTACAAATATACATACATAT [XGTACX_site5089]”, 9.05 ± 0.16; to “TTGTGTGTATGTATACATATATATATTGAGACGAAT [TGCATGCA_negctrl_site382]”, 8.13 ± 0.82.

Take “TTTCCATTATGATATAGTACATAAATATATGTAATA [XGTACX_site6992]”: the “gcPBM binding intensity (ln)” value amounted to 7.73 ± 0.31. The figure for “ACATATAATAAAAAATGTACACACATAAGAAAATTT [XGTACX_site6153]” is 7.96 ± 0.62. With “AAAAAAAATATATAAACACACATATTTATATACTCA [CACACA_site4984]”, the “gcPBM binding intensity (ln)” value came out at 7.44 ± 0.34. To “ACTATAAATATATAAATATATATATATATATATATA [GTGCAC_negctrl_site65]” belongs 9.34 ± 0.8.

Turning to “ACTCTTAAAATGTATTGTACATAATTTTTACAAGGG [XGTACX_site6611]”, the “gcPBM binding intensity (ln)” value amounted to 7.95 ± 0.59. The figure for “AGGTAGTTCTGTATCACACACATATATATATATATA [CACACA_site2214]” is 9.3 ± 0.71; for “GGAGAATAGTGGAAAACACACACGTTTGAGATATGG [CACACA_site1168]” it is 7.92 ± 0.91. The figure for “CAAAAACGGAAGTGGTGTACCGATATTATATAAACA [XGTACX_site4962]” is 7.8 ± 0.73. The figure for “TTTTTTTTTTTTACCTGTACATGTCAGCAAACTTTT [XGTACX_site1171]” is 8.18 ± 0.64; for “AACATTATAAGACACACACACACATATATATATATA [CACACA_site8259]” it is 9.16 ± 0.28; for “TATAAAACCCTACTGTTTCTTCTTTATTGATATATT [TGCATGCA_negctrl_site285]” it is 7.54 ± 0.57.

“GAAAGAATAAAATAAACATGCAAATAAAACATAAAA [TGCATGCA_site471]”: the “gcPBM binding intensity (ln)” value was found to be 8.19 ± 0.59. To “AAAGTTTTTATACATACACACCTATAAATTAAGTGC [CACACA_site7198]” belongs 7.75 ± 0.57. As for “AATTGTAAATTGGGCACTTATAAAAATGAACAAATA [CACACA_negctrl_site1583]”, the “gcPBM binding intensity (ln)” value came out at 8.2 ± 0.4. The figure for “TCATAAAGAACAAAGTGTACCTATATATTACATACA [XGTACX_site7595]” is 7.63 ± 0.55; for “TACTATCTATACAATACACACAAAAAAAAAAAAATA [CACACA_site3981]” it is 7.7 ± 0.21. Turning to “TTATTATCCTATATTTCTTTTCCTTCTTCAAAATTA [CACACA_negctrl_site1314]”, the “gcPBM binding intensity (ln)” value is 7.65 ± 0.64. The figure for “TAAATACACTGTAGCGCACACGGCCAAAAAAAAAAA [CACACA_site1818]” is 9.98 ± 0.41. As to “TAATATCATTTATATTGTACTATAACAAAATCTATA [XGTACX_site7700]”, the “gcPBM binding intensity (ln)” value is 7.53 ± 0.38. The figure for “TATGTCAATTTTCATACATGCGCATAATCTTTATTT [TGCATGCA_site807]” is 7.91 ± 0.78; for “ATAAATAAGATACGTACACACATATACAAAATATAC [CACACA_site3661]” it is 8.14 ± 0.26.

On to “TAAATATATGCATATACACACAACAAAAAAATATAT [CACACA_site2341]”, for which the “gcPBM binding intensity (ln)” value was found to be 8.28 ± 0.68. To “TCTCAGTAAATTAAATGTACATAAGGGAGGAACTAT [XGTACX_site8045]” belongs 8.14 ± 0.51. The figure for “TTGTGGATTTTGTGCGCACACACATGCAAAAAGAAA [CACACA_site1147]” is 10.76 ± 0.071. To “CACAGACATATATATACACACTTTTATTTAAATAAC [CACACA_site4962]” belongs 8.12 ± 0.47; to “AAAAAAAAAATGTGCACACGCGTACACCCAAAAAAA [CACACA_site5149]”, 9.58 ± 0.27. Take “TTTTTGTATCCTTCTTCTTTTTCCAGACTACATTAT [XGTACX_negctrl_site216]”: the “gcPBM binding intensity (ln)” value was 8.05 ± 0.8.

Regarding “TATAAAAATAATATTACACACATGTAAAATGGCTGT [CACACA_site5755]”, the “gcPBM binding intensity (ln)” value came out at 7.62 ± 0.72. To “GTATATATATATATATGTACATATATGTAGATATAT [XGTACX_site5431]” belongs 7.88 ± 0.47; to “ATATGTACGCAAGGTGCACACTGGTGCATTAAAAAA [CACACA_site1801]”, 12.1 ± 0.21. The figure for “TACATATGGCACATATGTACACACGTATAGATAATA [XGTACX_site4123]” is 9.08 ± 0.41; for “ATGAATATAAAATATACACACTTATATATCGAATGA [CACACA_site6240]” it is 7.32 ± 0.58. The figure for “TTTTATTTTTTCTCACGTACAAATATATAATTTTTT [XGTACX_site6952]” is 7.96 ± 0.56. As to “AATATATCCTATTCGAACAAAAATACATGCACATAT [CACACA_negctrl_site1058]”, the “gcPBM binding intensity (ln)” value worked out at 8.86 ± 0.37. The figure for “TATCATTATGTAGAAACACACATAAGCTTCGGTTCA [CACACA_site2766]” is 7.42 ± 0.59; for “GGGGAAAAAAAAAAAGGAAAAAGAAAAAAAAAAAAA [GTGCAC_negctrl_site489]” it is 8.04 ± 1. The figure for “ATAAAATTTATATAAGCACACAAATATATATTTATA [CACACA_site9083]” is 8.12 ± 0.23.

Take “TTATGGTTATACATATGTACATATATATATATATAT [XGTACX_site1494]”: the “gcPBM binding intensity (ln)” value was determined as 9.22 ± 0.5.

Turning to “AATTGCATAATATATTCACACATTTTTAAGTGATAC [CACACA_site5679]”, the “gcPBM binding intensity (ln)” value worked out at 7.92 ± 0.47. To “GTAAAGGCTATATATGTGCACATTTTTTTTTTTTTT [GTGCAC_site9925]” belongs 9.54 ± 0.73. The figure for “ATATTATTTTAAAAAAGTACATTTTTAAGAATTCTT [XGTACX_site6630]” is 7.86 ± 0.47. The figure for “AACATATAAATAAACTGTACATATATATATATATAT [XGTACX_site1056]” is 9.45 ± 0.75; for “AATATTACGTGTTTGGTATTTTTCGATGTTGGCAGG [XGTACX_negctrl_site59]” it is 7.8 ± 0.5.

On to “TAAATAAATAAAAAAACACACATATAAATATAAATA [CACACA_site7815]”, for which the “gcPBM binding intensity (ln)” value came to 7.36 ± 0.64. The figure for “TGTTTCCTATTTTGTATGCACTTTTTGTCATAATTA [GTGCAC_site9921]” is 10.1 ± 0.21; for “TATACGGACTCTAAGTGTACTTAAAATAATTCAAAC [XGTACX_site3606]” it is 7.75 ± 0.53. The figure for “TATGTGTGACAAAATTGTACGGTCTCTTTATTTTGT [XGTACX_site2679]” is 7.72 ± 0.54. The figure for “TATTATATAATAAAAATTATTATTATTTGTATAAAT [CACACA_negctrl_site195]” is 7.21 ± 0.42; for “TATATTGCCCTTCACACACACACATATATATATATA [CACACA_site2492]” it is 9.55 ± 0.54; for “TAAAAATGTTGACACACACACATAAATATATTTTAT [CACACA_site7227]” it is 7.92 ± 0.45. Regarding “ATTTTTATACCTAAGTGTACATGATGTTTTCTTTTT [XGTACX_site973]”, the “gcPBM binding intensity (ln)” value was 7.95 ± 0.73. The figure for “CATTTTTAAAAAAATTGTACAAAACATATATGTGTA [XGTACX_site3396]” is 7.71 ± 0.32. To “TTCCTTTTGAACTCTCGTACGCGTAGGTGTTATTAT [XGTACX_site6264]” belongs 7.89 ± 0.49; to “TATTAAAAGTAAAAAACACACATGGATATATACATA [CACACA_site3959]”, 7.67 ± 0.64.
